# Reference: the supplement of paper PMC10037445
# ± gives the standard deviation of the averaged measurements. Over roughly 2,900 compounds, “NF-kB SEAP reporter activity, fold change vs agonist alone” has its median near 0.99; the highest 2% begin near 2.6. This is one part of the list.
# Key:
# RAW-Dual [1] = assay: NF-kB SEAP reporter activity, fold change vs agonist alone; cytotoxicity flag (confluency mask): not cytotoxic; higher = enhanced NF-kB activity
# Method in brief: (§1)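 RAW-Dual macrophages were seeded in DMEM at 50,000 cells/well in 384-well plates, given 50 nL of library stock by pin tool, and given a PRR agonist 1 h later. Plates were held at 37 °C, 5% CO2 for 20 hours, after which supernatant was read for IRF by QuantiLuc luminescence and for NF-κB by QuantiBlue absorbance at 620 nm. Reporter activity is expressed as fold change over wells that received agonist alone. A well was called cytotoxic when IncuCyte confluency fell below 70% of agonist controls in both mask sets.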
# RAW-Dual [2] = assay: NF-kB SEAP reporter activity, fold change vs agonist alone; higher = enhanced NF-kB activity
# Method in brief: as §1
# RAW-Dual [3] = assay: NF-kB SEAP reporter activity, fold change vs agonist alone; cytotoxicity flag (confluency mask): cytotoxic (confluency <70% of control); higher = enhanced NF-kB activity
# Method in brief: as §1
# [4] = agonist: ODN 1826 (TLR9) 0.5 ug/mL
# [5] = agonist: Pam2CSK4 (TLR2/6) 0.1 ug/mL
# [6] = agonist: Pam3CSK4 (TLR2/1) 0.1 ug/mL
# [7] = library stock concentration (final ~1000-fold dilution): 10 mM, cytotoxicity flag (confluency mask): not cytotoxic, agonist: MPLA (TLR4) […]
# [8] = library stock concentration (final ~1000-fold dilution): 10 mM, cytotoxicity flag (confluency mask): not cytotoxic, agonist: Imiquimod (TLR7) […]
# [9] = library stock concentration (final ~1000-fold dilution): 10 mM, cytotoxicity flag (confluency mask): cytotoxic (confluency <70% of control), agonist: MPLA (TLR4) […]
# [10] = library stock concentration (final ~1000-fold dilution): 2 mM, cytotoxicity flag (confluency mask): not cytotoxic, agonist: MPLA (TLR4) […]
compound,measurement,setting,value
CCOC(=O)/C=C\C(=O)OCC (library stock concentration (final ~1000-fold dilution): 10 mM),NF-kB SEAP reporter activity,RAW-Dual [1]; agonist: LPS (TLR4) 0.1 ug/mL,0.819 ± 0.12
same,NF-kB SEAP reporter activity,RAW-Dual [1]; [4],1.2 ± 0.62
same,NF-kB SEAP reporter activity,RAW-Dual [1]; [5],0.786 ± 0.041
same,NF-kB SEAP reporter activity,RAW-Dual [1]; [6],0.81 ± 0.066
CCOC(=O)/C=C\C(=O)OCC,NF-kB SEAP reporter activity,RAW-Dual [2]; [7],1.56 ± 0.87
COC(=O)C1=C(C)NC(C)=C(C(=O)OCCN2CCN(C(c3ccccc3)c3ccccc3)CC2)C1c1cccc([N+](=O)[O-])c1 (centres undefined),NF-kB SEAP reporter activity,RAW-Dual [2]; [8],0.522
same,NF-kB SEAP reporter activity,RAW-Dual [2]; [7],0.869
COC(=O)C1=C(C)NC(C)=C(C(=O)OCCN2CCN(C(c3ccccc3)c3ccccc3)CC2)C1c1cccc([N+](=O)[O-])c1 (centres undefined) (library stock concentration (final ~1000-fold dilution): 10 mM),NF-kB SEAP reporter activity,RAW-Dual [1]; agonist: LPS (TLR4) 0.1 ug/mL,0.908
same,NF-kB SEAP reporter activity,RAW-Dual [1]; [4],0.387
same,NF-kB SEAP reporter activity,RAW-Dual [1]; [5],0.245
same,NF-kB SEAP reporter activity,RAW-Dual [1]; [6],0.398
CCOc1nc2cccc(C(=O)OC(C)OC(=O)OC3CCCCC3)c2n1Cc1ccc(-c2ccccc2-c2nnn[nH]2)cc1 (centres undefined) (library stock concentration (final ~1000-fold dilution): 10 mM),NF-kB SEAP reporter activity,RAW-Dual [3]; agonist: LPS (TLR4) 0.1 ug/mL,0.758
same,NF-kB SEAP reporter activity,RAW-Dual [3]; [4],0.425
same,NF-kB SEAP reporter activity,RAW-Dual [3]; [5],0.297
same,NF-kB SEAP reporter activity,RAW-Dual [3]; [6],0.336
CCOc1nc2cccc(C(=O)OC(C)OC(=O)OC3CCCCC3)c2n1Cc1ccc(-c2ccccc2-c2nnn[nH]2)cc1 (centres undefined),NF-kB SEAP reporter activity,"RAW-Dual [2]; library stock concentration (final ~1000-fold dilution): 10 mM, cytotoxicity flag (confluency mask): cytotoxic (confluency <70% of control), agonist: Imiquimod (TLR7) […]",0.702
same,NF-kB SEAP reporter activity,RAW-Dual [2]; [9],0.759
Cn1cc(CC(N)C(=O)O)c2ccccc21 (centres undefined),NF-kB SEAP reporter activity,"RAW-Dual [2]; library stock concentration (final ~1000-fold dilution): 2 mM, cytotoxicity flag (confluency mask): not cytotoxic, agonist: Imiquimod (TLR7) […]",0.994
same,NF-kB SEAP reporter activity,RAW-Dual [2]; [10],1.05
Cn1cc(CC(N)C(=O)O)c2ccccc21 (centres undefined) (library stock concentration (final ~1000-fold dilution): 2 mM),NF-kB SEAP reporter activity,RAW-Dual [1]; agonist: LPS (TLR4) 0.1 ug/mL,1.05
same,NF-kB SEAP reporter activity,RAW-Dual [1]; [4],1.22
same,NF-kB SEAP reporter activity,RAW-Dual [1]; [5],1.19
same,NF-kB SEAP reporter activity,RAW-Dual [1]; [6],1.05
Cc1ccccc1-c1cc(N2CCN(C)CC2)ncc1N(C)C(=O)C(C)(C)c1cc(C(F)(F)F)cc(C(F)(F)F)c1,NF-kB SEAP reporter activity,RAW-Dual [2]; [10],1.06
Cc1ccccc1-c1cc(N2CCN(C)CC2)ncc1N(C)C(=O)C(C)(C)c1cc(C(F)(F)F)cc(C(F)(F)F)c1 (library stock concentration (final ~1000-fold dilution): 2 mM),NF-kB SEAP reporter activity,RAW-Dual [1]; agonist: LPS (TLR4) 0.1 ug/mL,1.06
same,NF-kB SEAP reporter activity,RAW-Dual [1]; [4],0.951
same,NF-kB SEAP reporter activity,RAW-Dual [1]; [5],1.04
same,NF-kB SEAP reporter activity,RAW-Dual [1]; [6],1.03
O=C(OC1CN2CCC1CC2)N1CCc2ccccc2C1c1ccccc1 (centres undefined),NF-kB SEAP reporter activity,RAW-Dual [2]; [9],1.22
O=C(OC1CN2CCC1CC2)N1CCc2ccccc2C1c1ccccc1 (centres undefined) (library stock concentration (final ~1000-fold dilution): 10 mM),NF-kB SEAP reporter activity,RAW-Dual [3]; agonist: LPS (TLR4) 0.1 ug/mL,1.01
same,NF-kB SEAP reporter activity,RAW-Dual [3]; [4],0.565
same,NF-kB SEAP reporter activity,RAW-Dual [3]; [5],0.878
same,NF-kB SEAP reporter activity,RAW-Dual [3]; [6],0.943
Cc1c(NC(=O)c2cc(C(N)=O)nc3cc(F)ccc23)c(C(F)(F)F)nn1Cc1ccc(C#N)cc1 (library stock concentration (final ~1000-fold dilution): 10 mM),NF-kB SEAP reporter activity,RAW-Dual [1]; agonist: LPS (TLR4) 0.1 ug/mL,0.766
same,NF-kB SEAP reporter activity,RAW-Dual [1]; [4],0.559
same,NF-kB SEAP reporter activity,RAW-Dual [1]; [5],0.148
same,NF-kB SEAP reporter activity,RAW-Dual [1]; [6],0.33
Cc1c(NC(=O)c2cc(C(N)=O)nc3cc(F)ccc23)c(C(F)(F)F)nn1Cc1ccc(C#N)cc1,NF-kB SEAP reporter activity,RAW-Dual [2]; [8],0.491
same,NF-kB SEAP reporter activity,RAW-Dual [2]; [7],1.25
